# Test results reported in PubChem BioAssay AID504332 (National Center for Advancing Translational Sciences (NCATS), 2011).
# Out of some 350,000 compounds screened, about 31,000 (8.9%) were called active. This list was built around the results that the source calls inconclusive (neither active nor inactive); the mix of calls is not that of the screen. Calls come from the whole dose curve; as a rule, active = well fitted inhibition curve with a large enough effect; inconclusive = small, poorly fitted or top-dose-only effect; inactive = no such curve, though single readings can be large or run the other way. Potencies beside an inconclusive call are fits to weak or partial responses and may not hold up.
# Target: Histone-lysine N-methyltransferase EHMT2 (Homo sapiens) (UniProt Q96KQ7)
# Assay: qHTS Assay for Inhibitors of Histone Lysine Methyltransferase G9a; note: nearly all actives have a fitted effect of over 75% in size
# Settings: G9a H3K9 monomethylation, AlphaScreen, 2 h; activity, negative = inhibition: at 59 µM (top of the series) unless noted
# Outline: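 Step 1: enzyme (final 20 nM) with compound, 15 min RT. Step 2: substrate peptide 500 nM and SAM 20 uM, 2 h RT. Step 3: anti-H3K9me1 antibody and AlphaScreen beads, 10 min, then plate read.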
# % is set by controls: 0 for no effect and ±100 for the full control effect; potency is the fitted concentration of half-maximal effect; tags give direction and shape of the fitted curve.
# Chain of UniProt Q96KQ7 (Q96KQ7 whole entry, looked up): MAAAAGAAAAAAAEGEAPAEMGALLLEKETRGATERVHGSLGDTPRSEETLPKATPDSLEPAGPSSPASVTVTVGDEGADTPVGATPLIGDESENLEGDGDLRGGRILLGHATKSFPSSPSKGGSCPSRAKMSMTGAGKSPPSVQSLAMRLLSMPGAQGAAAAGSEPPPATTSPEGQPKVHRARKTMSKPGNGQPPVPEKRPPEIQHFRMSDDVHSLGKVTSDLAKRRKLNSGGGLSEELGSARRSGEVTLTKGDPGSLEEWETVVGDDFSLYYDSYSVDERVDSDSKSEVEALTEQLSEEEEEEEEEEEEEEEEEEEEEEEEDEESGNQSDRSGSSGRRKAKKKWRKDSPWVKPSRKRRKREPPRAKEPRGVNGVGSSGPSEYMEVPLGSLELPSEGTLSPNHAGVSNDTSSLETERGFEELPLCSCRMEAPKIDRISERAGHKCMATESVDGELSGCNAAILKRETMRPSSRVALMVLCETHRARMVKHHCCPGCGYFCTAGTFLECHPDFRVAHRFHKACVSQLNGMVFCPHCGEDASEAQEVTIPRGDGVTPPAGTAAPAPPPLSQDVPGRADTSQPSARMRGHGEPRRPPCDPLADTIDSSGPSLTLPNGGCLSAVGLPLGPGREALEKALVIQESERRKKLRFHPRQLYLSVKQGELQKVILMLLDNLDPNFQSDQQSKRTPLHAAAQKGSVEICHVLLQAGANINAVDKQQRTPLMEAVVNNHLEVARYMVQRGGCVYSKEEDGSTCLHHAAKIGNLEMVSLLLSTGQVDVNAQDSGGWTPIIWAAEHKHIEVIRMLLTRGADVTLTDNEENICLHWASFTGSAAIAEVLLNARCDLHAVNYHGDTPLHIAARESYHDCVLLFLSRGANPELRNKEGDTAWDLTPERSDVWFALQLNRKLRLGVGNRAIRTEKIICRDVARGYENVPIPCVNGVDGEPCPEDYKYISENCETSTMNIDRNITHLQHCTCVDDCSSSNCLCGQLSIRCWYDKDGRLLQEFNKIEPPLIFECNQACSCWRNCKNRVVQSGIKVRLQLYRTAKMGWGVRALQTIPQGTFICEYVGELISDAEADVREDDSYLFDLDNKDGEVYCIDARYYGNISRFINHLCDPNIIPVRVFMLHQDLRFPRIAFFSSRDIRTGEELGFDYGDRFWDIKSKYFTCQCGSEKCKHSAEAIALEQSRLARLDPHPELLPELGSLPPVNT
Compound,Potency,"activity, negative = inhibition"
CCOC(=O)c1cnc2nc[nH]n2c1=O,active: 56.2 µM,
O=S(=O)(c1ccc(-c2n[nH]c(=S)o2)cc1)N1CCCCC1,active: 11.2 µM,
Cc1ccsc1-c1n[nH]c(=S)n1CC(C)C,"inconclusive: 7.94 µM [inhibitor, full curve, poor fit]",
O=[N+]([O-])c1cccc(Cl)c1N1CCOCC1,inactive,
COc1ccc([N+](=O)[O-])cc1NC(=O)c1cn(-c2ccc(Cl)cc2)c(=O)c2ccccc12,"inconclusive: 89.1 µM [inhibitor, single point]",
O=C1CN(CC(=O)N2CCCCC2)c2ccccc2O1,,inconclusive: -108% [inhibitor]
CN(c1ccccc1)S(=O)(=O)c1ccc2ccccc2c1,inactive,
O=C(Nc1cc(C(F)(F)F)ccc1Cl)c1cc(-c2cccs2)nc2ccccc12,inactive,
COc1ccc(S(=O)(=O)Nc2ccccc2C(=O)Nc2nc(-c3ccc(F)cc3)cs2)cc1OC,"inconclusive: 1.26 µM [inhibitor, full curve]",
O=C(CSC1=Nc2ccccc2C2=NC(Cc3c[nH]c4ccccc34)C(=O)N12)NC1CCCCC1 (stereo not given),active: 50.1 µM,
COc1ccccc1C(C)NC(=O)CN(C)CC(=O)Nc1c(C)cccc1C (stereo not given),"inconclusive: 6.31 µM [inhibitor, single point]",
CCOc1ccc2nc(NS(=O)(=O)c3ccc4c(c3)n(C)c(=O)n4C)sc2c1,,inconclusive: -69.1% [inhibitor]
COc1ccc(/C=C/C(=O)N(CC(C)C)C2CCS(=O)(=O)C2)cc1 (stereo not given),inactive,
CC(C)(C)C(=O)Nc1nnc2n1CCS2,inactive,
CCc1noc(C)c1C(=O)Nc1nc(-c2ccc(OC)c(OC)c2)cs1,"inconclusive: 17.8 µM [inhibitor, partial curve, poor fit]",
CC1(C)C(=O)Nc2ccccc2N1C(=O)COC(=O)c1cc(S(=O)(=O)N2CCOCC2)ccc1F,"inconclusive: 79.4 µM [inhibitor, single point]",
Cc1cc(C)c2nc(-c3ccccn3)cc(C(=O)NCCc3ccc(S(N)(=O)=O)cc3)c2c1,active: 35.5 µM,
COc1ccccc1/C=C\C=N\NC(=O)c1ccco1,"inconclusive: 28.2 µM [inhibitor, partial curve, poor fit]",
CCOc1ccccc1C(=O)Nc1cc(OC)ccc1OC,"inconclusive: 79.4 µM [inhibitor, partial curve, poor fit]",
COc1ccc(NS(=O)(=O)c2cc(NC(=O)c3nn(C)c(=O)c4ccccc34)ccc2OC)cc1,"inconclusive: 89.1 µM [inhibitor, single point]",
Cc1ccc(C)c2[nH]c(=O)c(CN(Cc3ccco3)C(=O)Nc3ccccc3)cc12,"inconclusive: 39.8 µM [inhibitor, partial curve]",
O=C(/C=C/c1ccco1)OCC(=O)c1ccc(OC(F)F)cc1,"inconclusive: 3.55 µM [inhibitor, partial curve, poor fit]",

Compound,Potency,"activity, negative = inhibition"
CCOC(=O)C1=C(C)c2ccccc2N(C(=O)OC)C1(C)C(=O)OCC (stereo not given),inactive,
COC(=O)CN1C(c2cccc(Cl)c2)=Nc2ccc(Cl)cc2C1c1ccccc1 (stereo not given),"inconclusive: 79.4 µM [inhibitor, single point]",
COc1cc2c(cc1NC(=O)C(C)Sc1cccc[n+]1[O-])oc1ccccc12 (stereo not given),"inconclusive: 39.8 µM [inhibitor, single point]",
CC(=O)c1ccc(S(=O)(=O)N2CCN(C(=O)c3ccc(COc4ccccc4)o3)CC2)cc1,active: 50.1 µM,
COc1cccc2c1OCC(C(=O)Nc1nccs1)=C2,"inconclusive: 79.4 µM [inhibitor, single point]",
COc1ccc(CNC(=O)CCCN2C(=O)c3ccccc3C2=O)cc1,"inconclusive: 44.7 µM [inhibitor, partial curve, poor fit]",
O=C(c1ccccc1)N1CCN(c2ccc([N+](=O)[O-])c(N3CCOCC3)c2)CC1,"inconclusive: 35.5 µM [inhibitor, single point]",
CCOC(=O)C1=C(CS(=O)(=O)c2ccc(C(C)(C)C)cc2)NC(=O)NC1c1cccc(OC)c1 (stereo not given),"inconclusive: 7.08 µM [inhibitor, partial curve, poor fit]",
COc1ccc(S(=O)(=O)N(Cc2ccccc2)Cc2nc(-c3ccccc3)no2)cc1,,inactive: 37.1% [at 12.7 µM]
CCNc1cc2n(c(=O)n1)CCc1cc(OC)c(OC)cc1-2,inactive,
COC(=O)Cc1c(C)nc2nc(NCc3ccc(Cl)cc3)[nH]n2c1=O,,inconclusive: -60.5% [inhibitor] [at 12.7 µM]
C=CCc1ccccc1OCC(CN1CCCCC1)OC(C)=O (stereo not given),"inconclusive: 1.58 µM [inhibitor, full curve, poor fit]",
COc1ccc(S(=O)(=O)CC(=O)c2cc3cccc(C)c3oc2=O)cc1,active: 50.1 µM,
COCCC1CCCCN1C(=O)c1cc(COc2ccc(C)nc2)on1 (stereo not given),"inconclusive: 50.1 µM [inhibitor, partial curve, poor fit]",
C=C(C)[C@H]1CC[C@]2(C(=O)O)CC[C@]3(C)[C@@H](CC[C@H]4[C@@]5(C)CC[C@@H](O)C(C)(C)[C@@H]5CC[C@@]43C)[C@H]12,inactive,
COc1cc2oc3cc(C)oc(=O)c3c2cc1OC,,inconclusive: -81.8% [inhibitor]
CC1Cc2ccccc2N1CC(=O)c1c(N)n(Cc2ccccc2)c(=O)n(C)c1=O (stereo not given),active: 39.8 µM,
CCN(c1ccccc1)S(=O)(=O)c1ccc(Cl)c(NC(=O)COC(=O)C2CC2C)c1 (stereo not given),inactive,
O=C(CSc1nc(=O)n2cc(Cl)ccc2n1)NCCc1ccccc1,,inactive: 5.22% [at 0.501 µM]
Cc1occc1-c1nnc(SCC(=O)NC2CCCCC2C)o1 (stereo not given),inactive,
Cc1ccc2nc(C)c(C(=O)N/N=C/c3ccc(C(=O)O)cc3)cc2c1,"inconclusive: 56.2 µM [inhibitor, partial curve, poor fit]",
COc1ccc(S(=O)(=O)N2CCN(c3ccc(C)cc3C)CC2)cc1OC,"inconclusive: 31.6 µM [inhibitor, single point]",

Compound,Potency,"activity, negative = inhibition"
COc1cccc(C(=O)Nc2nnc(S(=O)(=O)N(C)Cc3ccc(F)cc3)s2)c1,"inconclusive: 79.4 µM [inhibitor, single point]",
O=C(CSc1nnc(NC(=O)C2CC2)s1)NCc1ccco1,"inconclusive: 39.8 µM [inhibitor, single point]",
CCCN1/C(=C2/SC(=S)N(CC)C2=O)C=Cc2ccccc21,"inconclusive: 1.78 µM [inhibitor, partial curve, poor fit]",
CCC(C)CCCCC(=O)NC(CCN)C(=O)NC(C(=O)NC(CCN)C(=O)NC1CCNC(=O)C(C(C)O)NC(=O)C(CCN)NC(=O)C(CCN)NC(=O)C(CC(C)C)NC(=O)C(Cc2ccccc2)NC(=O)C(CCN)NC1=O)C(C)O (stereo not given),,inactive: -43.5% [at 2.33 µM]
COc1ccc(S(=O)(=O)N2CCN(C(=S)Nc3ccc(S(N)(=O)=O)cc3)CC2)cc1,active: 79.4 µM,
CC1=C(C(=O)OCc2ccc3c(c2)OCO3)C(c2ccc(Cl)cc2)NC(=O)N1 (stereo not given),"inconclusive: 89.1 µM [inhibitor, single point]",
CCOCCCNC(=O)c1ccc2c(c1)NC(=O)C(CS(=O)(=O)Cc1ccc(F)cc1Cl)N2 (stereo not given),"inconclusive: 25.1 µM [inhibitor, single point]",
CCCCc1nn2c(=O)cc(COC(=O)c3cccc(NC(=O)COc4ccccc4)c3)nc2s1,"inconclusive: 39.8 µM [inhibitor, single point]",
NC(=O)CC(NC(=O)c1cccc(Br)c1)c1ccc(N2CCN(c3ccccn3)CC2)c([N+](=O)[O-])c1 (stereo not given),active: 50.1 µM,
CC(=O)c1c(C)[nH]c(C(=O)COC(=O)COc2ccccc2F)c1C,"inconclusive: 2.51 µM [inhibitor, partial curve, poor fit]",
N=c1oc2cc(O)ccc2cc1C(=O)Nc1ccc(Cl)cc1,"inconclusive: 0.708 µM [inhibitor, full curve]",
CN1/C(=C\C(=O)c2cccc(S(=O)(=O)N3CCCCC3)c2)C(C)(C)c2ccccc21,inactive,
O=C(O)C(Cc1ccccc1-c1ccccc1)C(=O)O,"inconclusive: 50.1 µM [inhibitor, partial curve, poor fit]",
Cc1[nH]c2ccccc2c1CCNS(=O)(=O)c1ccc(S(N)(=O)=O)cc1,inactive,
COc1ccc([N+](=O)[O-])cc1NC(=O)C(C)c1ccccc1 (stereo not given),"inconclusive: 0.355 µM [inhibitor, full curve, poor fit]",
O=C(CSCc1ccccc1)N1CCN(C(=O)c2ccco2)CC1,"inconclusive: 31.6 µM [inhibitor, single point]",
CCN(CC)S(=O)(=O)c1cc(-c2nn(C)c(=O)c3ccccc23)ccc1C,"inconclusive: 79.4 µM [inhibitor, single point]",
CCOc1cccc(NC(=O)C2CC(=O)N(C)C(=Nc3cccc(OC)c3)S2)c1 (stereo not given),"inconclusive: 0.355 µM [inhibitor, full curve, poor fit]",
CCN(CCCNC(=O)CSc1cc(=O)n(C)c2ccccc12)c1ccccc1,"inconclusive: 25.1 µM [inhibitor, single point]",
CN(C(=O)CN1CCN(c2ccc([N+](=O)[O-])cn2)CC1)c1ccccc1,,inactive: 24.7% [at 0.501 µM]
CC(=O)c1n[nH]nc1Nc1nc(C)cc(C)n1,"inconclusive: 39.8 µM [inhibitor, single point]",
